From PubChem BioAssay AID624296 (National Center for Advancing Translational Sciences (NCATS), 2012)
The whole screen tested about 350,000 compounds, of which about 9,900 (2.8%) were called active. Inconclusive means that the source gave no clear call. Such entries were picked first, then a sample of the others. The call rests on the fitted dose curve; in most records, active means well fitted activation curve with a large enough effect; inconclusive means small, poorly fitted or top-dose-only effect; inactive means no such curve, though single readings can be large or run the other way. No potency is given beside an inconclusive call; the fits are too rough.

test: A quantitative high throughput screen for small molecules that induce DNA re-replication in MCF 10a normal breast cells.; further: nearly all actives have a fitted effect of over 50% in size; conditions: MCF 10A DNA re-replication, Hoechst nuclear intensity, 48 h; series mostly up to 46.1 µM
Potency means the concentration at half of the fitted maximal effect; tags describe the fitted curve by direction and shape.

| Compound | Potency |
| --- | --- |
| CCOC(=O)c1c(NC(=O)COC(=O)CCCOc2ccc(OC)cc2)sc(C(=O)N(C)C)c1C | inactive |
| S=c1[nH]nc(-c2ccco2)n1/N=C/c1ccc(Cl)c(Cl)c1 | inconclusive [activator, single point] |
| Cc1ccc(Nc2nc(-c3ccc(S(=O)(=O)N4CCOCC4)cc3)cs2)cc1Cl | inconclusive [activator, partial curve, poor fit] |
| CCOC(=O)c1[nH]c2ccc(OC)cc2c1NC(=O)c1cccc(OC)c1 | inconclusive [activator, partial curve, poor fit] |
| Cc1ccc(NC(=O)CC2C(=O)NCCN2C(=O)c2ccc(F)cc2)cc1 (configuration not stated) | inconclusive [activator, partial curve, poor fit] |
| Cc1nc2scc(C)n2c(=O)c1S(=O)(=O)Nc1ccc(N2CCN(C(=O)C(C)C)CC2)cc1 | inconclusive [activator, single point] |
| CN(Cc1ccc(C(C)(C)C)cc1)C(=O)c1ccc2c(=O)n3c(nc2c1)CCC3 | inconclusive [activator, single point] |
| O=C(N/N=C/c1ccc2cccc(OCc3ccccc3)c2n1)c1ccc(Cl)cc1 | inconclusive [activator, single point] |
| Cc1cc(/C=C2\SC(=S)NC2=O)c(C)n1-c1ccc(O)cc1 | inconclusive [activator, single point] |
| Cc1ccc2nc(NC(=O)c3ccc4ncsc4c3)sc2c1 | inconclusive [activator, single point] |
| Cc1onc(-c2ccccc2)c1C(=O)OCC(=O)N(C)c1ccccc1 | inactive |
| O=C(c1cc(S(=O)(=O)N2CCOCC2)ccc1Cl)N1CCCCC1CO (configuration not stated) | inactive |
| O=C(COc1ccccc1[N+](=O)[O-])Nc1cccc(Cl)c1N1CCOCC1 | inconclusive [activator, partial curve, poor fit] |
| CN(C)CCCOC(=O)c1ccc(Cl)cc1 | inconclusive [activator, partial curve, poor fit] |
| CCCc1cc(=O)oc2cc(OCC(=O)Nc3cc(C)on3)ccc12 | inconclusive [activator, single point] |
| Cc1ccccc1Oc1ncnc2oc(-c3ccccc3)cc12 | inconclusive [activator, partial curve, poor fit] |
| O=C(Nc1ccc(N2CCN(C(=O)c3ccco3)CC2)cc1)c1ccc([N+](=O)[O-])cc1Cl | inactive |
| Cc1ccc(N(CC(=O)NC2CCCC2)C(=O)CCC(=O)Nc2ccccn2)cc1C | inactive |
| O=C(O)c1cc(C2CC2)nc2ccccc12 | inactive |
| COc1ccc(OCCC(=O)c2ccc(OC)cc2)cc1 | inconclusive [activator, single point] |
| Cc1c(C(=O)N2CCc3ccccc3C2)oc2ccc(S(=O)(=O)N3CCCCCC3)cc12 | inconclusive [activator, partial curve, poor fit] |

| Compound | Potency |
| --- | --- |
| CC(=O)Oc1ccc(C)cc1N1C(=O)c2ccc(C(=O)O)cc2C1=O | inconclusive [activator, partial curve, poor fit] |
| Cc1cccc(-n2ccnc2SCC(=O)N2CCCc3ccccc32)c1C | inconclusive [activator, single point] |
| CCCc1nn2c(=O)cc(CSCC(=O)Nc3ccccc3OC)nc2s1 | inactive |
| Cc1[nH]c2ccc(C(=O)OC(C)C(=O)NC3(C#N)CCCCC3)cc2c1C (configuration not stated) | inconclusive [activator, partial curve] |
| Cc1cc(C(=O)NC(Cc2c[nH]c3ccccc23)C(=O)O)c(C)o1 (configuration not stated) | inactive |
| CCn1nc(C)c(NC(=O)/C=C/c2ccc(OC)c(COc3ccc(Cl)cc3Br)c2)c1C | inconclusive [activator, full curve, poor fit] |
| Cc1cc(C)c2c(-n3cccc3)c(NC(=O)OCc3ccccc3)sc2n1 | inconclusive [activator, single point] |
| COc1ccc(/C=C/C(=O)N2CCC(C(N)=O)CC2)cc1S(=O)(=O)N1CCOCC1 | inactive |
| S=C(Nc1ccc(Cl)cc1)NC1CCN(Cc2ccccc2)CC1 | inactive |
| COC(=O)c1ccc(C(=O)OC)c(-n2c(=O)c3ccccc3c3ccccc3c2=O)c1 | inconclusive [activator, partial curve, poor fit] |
| O=c1oc2ccccc2c(Nc2cccc(O)c2)c1[N+](=O)[O-] | active: 18.4 µM |
| CC(=O)N1CCCc2ccc(NS(=O)(=O)c3ccc(C)cc3)cc21 | inconclusive [activator, single point] |
| CC(C)CNC(=S)NNC(=O)c1csc2ccccc12 | inactive |
| COc1ccc2c(c1)C1=C(CC2)C(c2ccc(C)cc2)NC(=S)N1 (configuration not stated) | inconclusive [activator, single point] |
| CCOc1ccc(NC(=O)COC(=O)c2cc(S(=O)(=O)N3CCCC3)ccc2C)cc1 | inconclusive [activator, single point] |
| Cc1ccc(S(=O)(=O)NNc2ccccc2)c(C)c1 | inconclusive [activator, single point] |
| O=C1NC(=S)N/C1=C\c1ccc(N2CCOCC2)cc1 | inconclusive [activator, single point] |
| COc1ccccc1OCC(O)Cn1c(=N)n(Cc2ccccc2)c2ccccc21 (configuration not stated) | inconclusive [activator, single point] |
| COC(=O)C1=C(CSc2nc3c(cc2C#N)CN(C)CC3)OC(N)=C(C#N)C1c1ccc(F)cc1 (configuration not stated) | inconclusive [activator, single point] |
| O=[N+]([O-])c1ccc(N2CCN(CCO)CC2)cc1Sc1ccccn1 | inconclusive [activator, partial curve, poor fit] |
| CCOC(=O)Nc1cccc(OCC(=O)Nc2ccc3c(c2)CCC3)c1 | inconclusive [activator, partial curve, poor fit] |
